Results on 57 sequences are retold here after the supplement of paper PMC11417369.

This is one part of the list.

This assay concerns PfSIP2 AP2 domain 1 (GST-tagged). The assay is described as follows: gcPBM binding intensity (ln(normalized median fluorescence intensity)); higher = stronger DNA binding. An outline of the steps:
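In this array assay, P. falciparum DNA-binding domains with a GST tag, expressed in E. coli, were applied for 1 h to primer-extended double-stranded 36-bp intergenic genomic probes and negative controls on an Agilent 4 × 180k array. Bound protein was visualised with Alexa488 anti-GST antibody at 488 nm. Binding intensity is the highest Masliner-normalised natural-log median intensity across replicate spots of either probe orientation.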
With “ATATTTATTTATTTATGTACGCACACAGTTGATATT [XGTACX_site5808]”, the “gcPBM binding intensity (ln)” value was determined as 7.53.
The result for “AAATTATATTCAAGTGCATGTAACTTATTATTATAT [TGCATGCA_site526]” reads 7.62; that for “TATATTTTCCTGCAAACACACATATAAATGTGTAGA [CACACA_site533]”, 7.1; that for “GTAAAAATAAAAACTGGTACACAAGTTGTTATAAAA [XGTACX_site502]”, 7.02.
With “AACATGCTCAACTTTTTTTTTTTTTTTTTTTTTTTT [CACACA_negctrl_site1617]”, the “gcPBM binding intensity (ln)” value worked out at 8.59.
The result for “AAAATAAAATAAAAGTGTACGTTTTAAGAACATTGA [XGTACX_site2382]” reads 6.81.
The result for “CTTTTTTGTTAAAGTGTGCGCAATAGTTATAGACTT [GTGCAC_site9670]” reads 7.69; that for “TATAATCAATATGTAACACACAAAAGTTATATACTT [CACACA_site7368]”, 6.85.
In the case of “AATCTTAAAAATATATGTACTAAAAAAAAAAAAAAT [XGTACX_site6195]”, the “gcPBM binding intensity (ln)” value is 7.1.
Take “TATAATAATTATACATGTACACATTATTTGGATAAA [XGTACX_site5552]”: the “gcPBM binding intensity (ln)” value came to 6.97.
“TTTTTATATTTAATGTGTCCTCACTTAAAAGGATGA [XGTACX_site2744]”: the “gcPBM binding intensity (ln)” value came to 6.99.
With “ATTCTCCAAGTTTGATGTACACATATGACGACGGCG [XGTACX_site4912]” the figure was 7.39; with “AATATATTTTTTGGTTGTACAGAGATCTTTGTAGAA [XGTACX_site1707]”, 7.1; with AAAAATTATAGAAAAGTGCAATACATGTTACACCAT, 7.64.
Consider “TACAATAAGGATAAGTGTACATATGTGCATACATAT [XGTACX_site7188]”, for which the “gcPBM binding intensity (ln)” value came out at 7.11.
For the sequence “CATATAGCATAATCATGTACACATACAACAAATAGG [XGTACX_site1589]”, the “gcPBM binding intensity (ln)” value amounted to 7.21.
“CAACTAATATTAAAACGTACATAAATATTTAACAGA [XGTACX_site625]”: the “gcPBM binding intensity (ln)” value amounted to 6.98.
On to “ATCACATATATATATAATATATATATGTATATATTT [GTGCAC_negctrl_site249]”, for which the “gcPBM binding intensity (ln)” value worked out at 6.96.
As for “ATATATATATATATATGTACATATATTTTTATTTAT [XGTACX_site3508]”, the “gcPBM binding intensity (ln)” value came out at 9.31.
In the case of “AAAAAAAATATATATGCACACACAAAAAAACAAATT [CACACA_site8349]”, the “gcPBM binding intensity (ln)” value is 8.04.
In the case of “TATACCTTTTTATTCACACATATATGTCATATGTCA [CACACA_site5423]”, the “gcPBM binding intensity (ln)” value was 7.15.
Take “TTAATTACATGTAATTGTACTTAATTATAAGACATT [XGTACX_site464]”: the “gcPBM binding intensity (ln)” value is 6.93.
For the sequence “TATTACTTATAAATTACACACAAATGATTGAACATT [CACACA_site2259]”, the “gcPBM binding intensity (ln)” value was 6.83.
For “TTAAAATAAAGAAAATGTACATAAATAAAAATAAAG [XGTACX_site2280]”, the “gcPBM binding intensity (ln)” value was found to be 7.78.
The result for “TTTTACCTAAATATCACACATATTTAAATATATATA [CACACA_site5597]” reads 7.2.
Consider “ATTATACCACCCGATATACACACTTGTAGACATCTT [CACACA_site7944]”, for which the “gcPBM binding intensity (ln)” value was determined as 6.98.
Regarding “AAAAAAAAATACATATGTACTTATGTATAATGTTGT [XGTACX_site8104]”, the “gcPBM binding intensity (ln)” value is 7.14.
“TTTTTTTAATTAGTTTGTACATATTGTTATAATATA [XGTACX_site6294]”: the “gcPBM binding intensity (ln)” value was 6.85.
Regarding “CATGTTATGATTCCATGTACTTATAGCATTAAAAAA [XGTACX_site8939]”, the “gcPBM binding intensity (ln)” value worked out at 6.98.
In the case of “ATAAAAAGGAGACACACACACACACGCATATTTATA [CACACA_site6551]”, the “gcPBM binding intensity (ln)” value stood at 7.08.
“TATATTAAACCATGTAGTACCTTGAATAAATATTAT [XGTACX_site8254]”: the “gcPBM binding intensity (ln)” value worked out at 7.
For the sequence “AACATATATATATATACATGCATATGAACAACGAAT [TGCATGCA_site93]”, the “gcPBM binding intensity (ln)” value worked out at 7.35.
Take “TATAAAAATGTTTACACACACACATAAATATATTTT [CACACA_site2512]”: the “gcPBM binding intensity (ln)” value was 7.1.
With “TTTTTTTTTTTTCTGAGTACGAAAAATAGAGATAGA [XGTACX_site3825]” the figure was 7.48; with “TGTATAAATATAATCACACATATATATATATATATA [CACACA_site4365]”, 9.45; with “AAGTTACAAAATCAAAAGGAAAAAATATAAAATAAT [CACACA_negctrl_site561]”, 6.84.
Regarding “CAAGAAAATTGACACACACACATATTTATATTTATA [CACACA_site7766]”, the “gcPBM binding intensity (ln)” value turned out to be 6.95.
For the sequence “AAATTAAATGTAAGCACACATAAATTATACTCATAT [CACACA_site5782]”, the “gcPBM binding intensity (ln)” value was 6.82.
As for “ACTTATACAAAATGTGCATGTTATATTTACAATAAT [TGCATGCA_site108]”, the “gcPBM binding intensity (ln)” value is 7.85.
With “GGAATAGTAATATATACACACAAATACATATATATA [CACACA_site67]” the figure was 7.65; with “TTTATTTTTTAATGATGTACTATTTATCCAGAAAAG [XGTACX_site7750]”, 7.42.
As for “ATAAGCTCATGCAGGTGTACACAAAAAGAAAAAAAA [XGTACX_site2433]”, the “gcPBM binding intensity (ln)” value worked out at 7.55.
With “ATAATGAAAAGGAACATACACACCCCATATAAATAT [CACACA_site3442]”, the “gcPBM binding intensity (ln)” value worked out at 7.16.
As for “TCTGTATATTATTCAAGTACACAATATAAATATAAA [XGTACX_site7241]”, the “gcPBM binding intensity (ln)” value was 7.22.
The result for “AAAAAATTCAAAAGGTGTACAACATTATATTATTCC [XGTACX_site5118]” reads 6.94; that for “TATTGTTTTTTTTACTGTACACAAGTAAATGAAAAA [XGTACX_site790]”, 7.47.
“GTATATAATTAAAGTTGTACCCTTAAAAAAGGGAAA [XGTACX_site7278]”: the “gcPBM binding intensity (ln)” value is 6.97.
With “GATAACTTTTTTCTCACACACAAATATTTTAATCAT [CACACA_site7685]” the figure was 7.38; with “GAACAAATTAAATAGGTGCATTAACATGTTCTATTT [GTGCAC_site9729]”, 10.4; with “AAAAATAAAAAAATAAATACGTATACATATATAATA [TGCATGCA_negctrl_site551]”, 6.81.
The result for “TATAATTATATGTATACACACACATACATTTACATA [CACACA_site9061]” reads 7.27; that for “AAAATGAAAATGAAAATGAAAATGGGAAAATGTCAA [TGCATGCA_negctrl_site488]”, 6.98; that for “TTATATATAAGTTTATTCATTTTTTTTTTTTTTTTT [XGTACX_negctrl_site573]”, 7.62.
As for “TAAATAAAAAAGAATACACACAGCATGCATAAATAT [CACACA_site237]”, the “gcPBM binding intensity (ln)” value amounted to 7.11.
“CATATATATCGTAATGCACACATGTAATTTCATAAT [CACACA_site811]”: the “gcPBM binding intensity (ln)” value is 7.35.
With “TAACACCAAACTAAATGTACACACATACATAAATAT [XGTACX_site2201]”, the “gcPBM binding intensity (ln)” value amounted to 7.33.
Regarding “TAAATGTGAACAATAGAAGTAATAAGAAGAATAAAA [CACACA_negctrl_site1080]”, the “gcPBM binding intensity (ln)” value was found to be 6.97.
